{
  "source": "PubChem BioAssay AID2675",
  "about": "(National Center for Advancing Translational Sciences (NCATS), 2010)",
  "note": "The campaign covered roughly 280,000 compounds. About 100 (0.036%) were called active. Inconclusive results, whose numbers are uncertain, are shown with a selection of clear calls. Calls follow the shape of the dose curve; as a rule, active = well fitted inhibition curve with a large enough effect in the signal ratio, with a control signal flat (not every such curve was filed as active); inconclusive = small, poorly fitted or top-dose-only effect, or effect the other way, or a change in a side signal; inactive = no such curve, though single readings can be large or run the other way; the % refers to the signal ratio. Where the call is inconclusive, the potency comes from a doubtful curve fit. “Side channel” marks fits to a control or component signal instead of the main read-out. % is scaled to controls: 0 for no effect and ±100 for the full control effect; potency is read from the fitted curve at half-maximal effect; tags tell the direction and shape of the fitted curve or compound fluorescence and quenching.",
  "data": [
    {"target": "Muscleblind-like protein 1 (Homo sapiens) (UniProt Q9NR56)", "sequence (Q9NR56 whole entry, looked up)": "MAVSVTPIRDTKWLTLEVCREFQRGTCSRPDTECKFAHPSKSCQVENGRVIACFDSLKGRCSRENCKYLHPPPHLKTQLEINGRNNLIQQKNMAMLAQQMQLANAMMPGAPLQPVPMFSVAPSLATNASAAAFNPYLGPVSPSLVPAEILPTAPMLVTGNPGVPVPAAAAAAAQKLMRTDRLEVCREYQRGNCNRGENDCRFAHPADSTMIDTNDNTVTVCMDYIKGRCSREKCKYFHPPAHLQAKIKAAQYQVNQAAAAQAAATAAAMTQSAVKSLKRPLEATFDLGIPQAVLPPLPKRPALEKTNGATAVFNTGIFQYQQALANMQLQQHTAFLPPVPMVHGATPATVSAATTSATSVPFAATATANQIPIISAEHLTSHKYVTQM", "assay": "qHTS Assay for Inhibitors of MBNL1-poly(CUG) RNA binding", "conditions": "TR-FRET MBNL1-His/biotin-(CUG)12 binding, 665/545 ratio; activity change, negative = inhibition: at 57.5 µM (top of the series)", "procedure,_shortened": "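TR-FRET readout: Ex 340 nm, 665/545 nm emission ratio, normalized to buffer-only (basal) and MBNL1-(CUG)12 controls. Complex of MBNL1-His with Biotin-(CUG)12, compounds 92 nM–58 uM, incubated 60 min at room temperature.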", "values": [
      {"smiles": "Cc1cc(C)c2ccc(/C=N/O)nc2c1O", "Potency": "inconclusive: 14.1 µM [quencher, side channel, partial curve]"},
      {"smiles": "Cc1ccc(/C=C2/NC(=O)N(Cc3ccc(Br)cc3)C2=O)o1", "activity change, negative = inhibition": "inactive: 6.18%"},
      {"smiles": "Cc1cc(C)n(C(=O)c2ccc([N+](=O)[O-])cc2Cl)n1", "Potency": "inconclusive: 14.1 µM [quencher, partial curve]"},
      {"smiles": "Cc1ccc(C(=O)c2c3ccccc3[n+]([O-])n2CCC(N)=O)cc1", "Potency": "inconclusive: 12.6 µM [quencher, side channel, partial curve]"},
      {"smiles": "COC(=O)c1ccccc1NC(=S)N(C)C", "activity change, negative = inhibition": "inactive: -3.18%"},
      {"smiles": "CSCCC(NC(=O)c1cc([N+](=O)[O-])ccc1Cl)C(=O)O", "note": "(stereo unspecified)", "Potency": "inconclusive: 11.2 µM [activator, single point]"},
      {"smiles": "COc1ccc(S(=O)(=O)NCc2ccccc2Cl)cc1OC", "Potency": "inconclusive: 4.47 µM [quencher, side channel, single point]"},
      {"smiles": "CN(C)C(=O)/C(=C/c1ccc(-c2cccc([N+](=O)[O-])c2)o1)NC(=O)c1ccccc1", "Potency": "inconclusive: 15.8 µM [quencher, side channel, partial curve]"},
      {"smiles": "COc1ccc(CCn2nnnc2C(CC(C)C)N2CCN(c3ncccn3)CC2)cc1OC", "note": "(stereo unspecified)", "Potency": "inconclusive: 8.91 µM [fluorescent, side channel, single point]"},
      {"smiles": "Oc1c(C=Nc2cccc3cccnc23)sc2ccccc12", "Potency": "inconclusive: 17.8 µM [quencher, side channel, partial curve]"},
      {"smiles": "COc1ccc(/C=N/Nc2ccccn2)cc1O", "Potency": "inconclusive: 22.4 µM [quencher, side channel, partial curve]"},
      {"smiles": "CN1C=C/C(=C\\c2cc[n+](C)c3ccccc23)c2ccccc21", "Potency": "inconclusive: 12.6 µM [quencher, side channel, partial curve]"},
      {"smiles": "CCC(=O)N1N=C(c2ccc(C)o2)CC1c1ccc(N(C)C)cc1", "note": "(stereo unspecified)", "Potency": "inconclusive: 20 µM [quencher, side channel, single point]"},
      {"smiles": "COc1ccc(CCNC(=O)c2cnc3ccccc3n2)cc1", "Potency": "inconclusive: 25.1 µM [quencher, side channel, partial curve]"},
      {"smiles": "COc1ccc(-c2cc(=O)oc3c(O)c(O)ccc23)cc1", "Potency": "inconclusive: 10 µM [quencher, side channel, partial curve]"},
      {"smiles": "CC(=O)Nc1ccc2nsnc2c1", "Potency": "inconclusive: 28.2 µM [quencher, side channel, partial curve]"},
      {"smiles": "O=C(Cc1cccs1)NCCc1ccc(Cl)cc1", "Potency": "inconclusive: 0.355 µM [quencher, side channel, full curve, poor fit]"},
      {"smiles": "O=C(Sc1nnc(-c2ccccc2)o1)N1c2ccccc2Sc2ccccc21", "Potency": "inconclusive: 39.8 µM [quencher, side channel, single point]"},
      {"smiles": "O=[N+]([O-])c1ccc(N/N=C/c2cccc(O)c2O)c(S(=O)(=O)N2CCOCC2)c1", "Potency": "inconclusive: 39.8 µM [quencher, side channel, partial curve, poor fit]"},
      {"smiles": "COc1ccc(-n2c(N)c(C(=O)NCc3ccco3)sc2=S)cc1", "Potency": "inconclusive: 3.98 µM [quencher, side channel, full curve]"},
      {"smiles": "O=C(N/N=C/c1cccc2ccccc12)c1ccc(CN2CCOCC2)cc1", "Potency": "inconclusive: 14.1 µM [quencher, side channel, partial curve]"},
      {"smiles": "O=c1[nH]nc(-c2ccc(NCCCO)c([N+](=O)[O-])c2)c2ccccc12", "Potency": "inconclusive: 7.08 µM [quencher, side channel, partial curve]"},
      {"smiles": "C=CCn1sc(N)c(C(=O)OCC)c1=S", "Potency": "inconclusive: 35.5 µM [quencher, side channel, single point]"},
      {"smiles": "O=C(Nc1ccccc1)Nc1nc(-c2ccc(Cl)cc2)cs1", "Potency": "inconclusive: 0.501 µM [fluorescent, side channel, partial curve]"},
      {"smiles": "O=c1oc(-c2ccccc2)cc(Cl)c1Cl", "Potency": "inconclusive: 14.1 µM [quencher, side channel, partial curve]"},
      {"smiles": "C=C1C(=O)[C@@]23[C@H](O)C[C@@H]4C(C)(C)CC[C@H](O)[C@]4(C)[C@@H]2C[C@H](O)[C@@H]1[C@H]3O", "activity change, negative = inhibition": "inactive: 13.7%"},
      {"smiles": "CCOC(=O)c1cc2c(=O)n3ccccc3nc2n(Cc2ccco2)c1=NC(=O)c1ccc(OC)cc1", "Potency": "inconclusive: 6.31 µM [quencher, side channel, partial curve]"},
      {"smiles": "C/C(=N\\Nc1nncc2ccccc12)c1ccc(OCC(=O)N(C)C)cc1", "Potency": "inconclusive: 20 µM [quencher, side channel, partial curve]"},
      {"smiles": "Cc1ccc(N2CC(C(=O)OCc3ccc([N+](=O)[O-])cc3)CC2=O)cc1", "note": "(stereo unspecified)", "Potency": "inconclusive: 22.4 µM [quencher, side channel, partial curve]"},
      {"smiles": "CCCCNc1ncnc2c1cnn2-c1ccc(Cl)cc1", "Potency": "inconclusive: 3.55 µM [quencher, side channel, single point]"},
      {"smiles": "COc1ccc(NC(=O)/C=C/c2ccc(OC)c(OC)c2)cn1", "Potency": "inconclusive: 15.8 µM [quencher, side channel, partial curve]"},
      {"smiles": "O=C(/C=C/c1ccccc1[N+](=O)[O-])NCc1cccnc1", "Potency": "inconclusive: 28.2 µM [quencher, side channel, single point]"},
      {"smiles": "c1ccc(-n2nnnc2-c2cnc(-c3ccncc3)nc2-c2cccs2)cc1", "Potency": "inconclusive: 39.8 µM [quencher, side channel, single point]"},
      {"smiles": "NC(=O)CC(NC(=O)Cc1ccc(Br)cc1)c1ccc(NCCN2CCCCC2)c([N+](=O)[O-])c1", "note": "(stereo unspecified)", "Potency": "inconclusive: 17.8 µM [quencher, side channel, partial curve]"},
      {"smiles": "O=C(c1ccc(Cl)cc1)C1CCN(C(=O)c2ccc(F)cc2)CC1", "activity change, negative = inhibition": "inactive: 4.97%"},
      {"smiles": "N#C/C(=C\\Nc1ccccc1SC(F)(F)F)c1nc(-c2ccc(F)cc2)cs1", "Potency": "inconclusive: 1.58 µM [fluorescent, side channel, full curve]"},
      {"smiles": "CCCCN1C(=O)N(C)C2NC(=O)NC21", "note": "(stereo unspecified)", "Potency": "inconclusive: 79.4 µM [inhibitor, partial curve]"},
      {"smiles": "CN1CCN(C(=S)Nc2ccc([N+](=O)[O-])cc2)CC1", "Potency": "inconclusive: 15.8 µM [quencher, side channel, partial curve]"},
      {"smiles": "O=C(CSc1cn[nH]n1)Nc1cccc(C(=O)O)c1", "activity change, negative = inhibition": "inactive: -6.22%"},
      {"smiles": "Cc1ccc(S(=O)(=O)O/N=C2\\CCCc3ccccc32)cc1", "activity change, negative = inhibition": "inactive: -1.77%"},
      {"smiles": "Fc1ccc(NC(=S)NN2CCOCC2)cc1Cl", "activity change, negative = inhibition": "inactive: 6.24%"},
      {"smiles": "Cc1cccc(-n2cnc3c(c2=O)c2nc4ccccc4nc2n3Cc2ccco2)c1", "Potency": "inconclusive: 12.6 µM [quencher, side channel, partial curve]"},
      {"smiles": "Cc1ccc(CNS(=O)(=O)c2ccc(Br)s2)cc1", "activity change, negative = inhibition": "inactive: -8.67%"},
      {"smiles": "CC1CCCCN1C(=O)c1cccc(NC(=O)c2ccccc2)c1", "note": "(stereo unspecified)", "activity change, negative = inhibition": "inactive: -5.88%"},
      {"smiles": "COC(=O)c1c(=O)n(O)c2ccc(OC)cc2[n+]1[O-]", "Potency": "inconclusive: 17.8 µM [quencher, side channel, partial curve]"},
      {"smiles": "N#CC1(Nc2ccccc2)C(=O)Nc2ccccc21", "note": "(stereo unspecified)", "Potency": "inconclusive: 12.6 µM [quencher, side channel, partial curve]"},
      {"smiles": "C/C(=N\\NC(=O)c1cccnc1)c1cccc([N+](=O)[O-])c1", "Potency": "inconclusive: 5.62 µM [quencher, side channel, partial curve]"},
      {"smiles": "Cc1nnnn1CC(=O)Nc1cccc([N+](=O)[O-])c1", "Potency": "inconclusive: 15.8 µM [quencher, side channel, partial curve]"},
      {"smiles": "Cc1ccc(C(=O)OCC(=O)NC(=O)c2cccn2C)cc1", "activity change, negative = inhibition": "inactive: -12.3%"},
      {"smiles": "O=[N+]([O-])c1ccc(S(=O)(=O)N/N=C/c2ccco2)cc1", "Potency": "inconclusive: 12.6 µM [quencher, side channel, partial curve]"},
      {"smiles": "Cc1ccc(S(=O)(=O)CCC(=O)NCCN2C(=O)S/C(=C\\c3ccccc3)C2=O)cc1", "activity change, negative = inhibition": "inconclusive: 16.4% [phenotype inactive]"},
      {"smiles": "CSc1ccc(/C=C(/NC(=O)c2ccccc2)C(=O)NCCCn2ccnc2)cc1", "Potency": "inconclusive: 0.794 µM [quencher, side channel, full curve, poor fit]"},
      {"smiles": "O=c1oc2ccccc2c(Nc2cc3ccccc3cc2O)c1[N+](=O)[O-]", "Potency": "inconclusive: 17.8 µM [quencher, side channel, partial curve]"},
      {"smiles": "C=CCn1c(-c2ccco2)n[nH]c1=S", "activity change, negative = inhibition": "inactive: 5.68%"},
      {"smiles": "Cn1c(=O)[nH]c2nnc(-c3ccc(Cl)c(Cl)c3)nc2c1=O", "Potency": "inconclusive: 2.82 µM [quencher, side channel, full curve]"},
      {"smiles": "CCCC(=O)N/N=C1\\CS(=O)(=O)N(C)c2ccsc21", "Potency": "inconclusive: 20 µM [quencher, side channel, partial curve]"},
      {"smiles": "COc1ccccc1NC(=O)CS(=O)(=O)c1cccc2nsnc12", "Potency": "inconclusive: 14.1 µM [quencher, side channel, partial curve]"},
      {"smiles": "CCn1c2ccc(C)cc2c2nnc(SCCN3CCCCC3)nc21", "Potency": "inconclusive: 14.1 µM [quencher, side channel, partial curve]"},
      {"smiles": "CC(=O)c1ccc(NC(=O)C2=CC(c3ccco3)=NS(=O)(=O)N2C)cc1", "Potency": "inconclusive: 14.1 µM [quencher, side channel, partial curve]"},
      {"smiles": "N#CCCN1CCN(S(=O)(=O)c2ccc(S(=O)(=O)N3CCCCCC3)cc2)CC1", "activity change, negative = inhibition": "inactive: -5.07%"},
      {"smiles": "Cc1ccc(Cn2ccsc2=NC(=O)CCl)cc1", "activity change, negative = inhibition": "inactive: 9.57%"}
    ]}
  ]
}
